# Assay results as given in article PMC4336329 (PLoS ONE, 2015).
# In all, about 310,000 compounds went through this assay and about 2,200 (0.71%) showed an effect of 50% or more. Effects have a minus sign here. The list shows a part of the results.
# Molecular target: human ether-à-go-go-related gene (hERG) potassium channel (human, UniProt Q12809)
# Assay: primary screen, population patch clamp on CHO cells stably expressing hERG
# Chain of human ether-à-go-go-related gene (hERG) potassium channel (Q12809 whole entry, looked up): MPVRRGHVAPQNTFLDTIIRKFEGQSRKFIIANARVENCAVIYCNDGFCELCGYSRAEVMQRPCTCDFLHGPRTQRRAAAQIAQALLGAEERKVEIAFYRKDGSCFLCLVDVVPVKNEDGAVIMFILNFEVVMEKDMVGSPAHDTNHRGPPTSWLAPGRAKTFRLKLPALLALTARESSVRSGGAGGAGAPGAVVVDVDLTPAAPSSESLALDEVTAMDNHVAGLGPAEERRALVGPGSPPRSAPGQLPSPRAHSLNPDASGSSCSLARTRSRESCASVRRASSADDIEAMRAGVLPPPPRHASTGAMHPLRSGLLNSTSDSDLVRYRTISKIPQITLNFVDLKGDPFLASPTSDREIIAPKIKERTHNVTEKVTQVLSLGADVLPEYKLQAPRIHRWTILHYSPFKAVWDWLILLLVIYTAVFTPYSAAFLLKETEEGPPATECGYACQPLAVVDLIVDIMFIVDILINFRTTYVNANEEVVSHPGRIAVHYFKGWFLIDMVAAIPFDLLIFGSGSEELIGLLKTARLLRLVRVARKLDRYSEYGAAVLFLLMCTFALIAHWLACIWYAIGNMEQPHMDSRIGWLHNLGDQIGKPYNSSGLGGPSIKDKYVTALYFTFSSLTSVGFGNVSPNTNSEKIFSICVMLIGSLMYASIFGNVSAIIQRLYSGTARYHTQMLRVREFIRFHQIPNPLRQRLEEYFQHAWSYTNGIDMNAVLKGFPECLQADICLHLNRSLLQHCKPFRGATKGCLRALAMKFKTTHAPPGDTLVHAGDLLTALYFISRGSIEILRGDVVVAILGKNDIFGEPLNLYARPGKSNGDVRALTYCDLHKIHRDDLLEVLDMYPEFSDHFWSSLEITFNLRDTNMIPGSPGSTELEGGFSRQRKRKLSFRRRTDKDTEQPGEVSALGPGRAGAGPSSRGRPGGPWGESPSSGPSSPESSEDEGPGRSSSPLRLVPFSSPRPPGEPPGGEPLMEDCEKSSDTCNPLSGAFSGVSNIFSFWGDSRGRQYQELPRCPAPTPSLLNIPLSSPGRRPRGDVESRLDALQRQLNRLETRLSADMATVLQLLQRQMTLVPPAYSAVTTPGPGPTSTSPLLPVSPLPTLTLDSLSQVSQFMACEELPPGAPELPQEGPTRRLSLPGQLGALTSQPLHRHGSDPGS
row,SMILES,"hERG current change (%, negative = inhibition) at 1uM"
1,Cc1nn(CCC#N)c(NC(=O)c2ccc(Cl)cc2)c1P(=O)(Nc1ccc([N+](=O)[O-])cc1)N1CCOCC1 (stereo not drawn),11.4%
2,Cc1cccc(CN2CCCC(C(=O)c3ccc4c5c(cccc35)CC4)C2)n1 (stereo not drawn),7.32%
3,O=C(c1cccc(F)c1)N1CCc2ccccc2C1,-4.32%
4,O=C(N/N=C/c1c[nH]c2ccccc12)c1ccc([N+](=O)[O-])cc1Cl,14.1%
5,CCOC(=O)C1CCCN(C(=O)Cc2ccc(C)cc2)C1 (stereo not drawn),7.03%
6,O=C(CN1C(=O)S/C(=C/c2cccs2)C1=O)N1CCOCC1,12.5%
7,CCOC(=O)C1=C(CSc2nc(CC)c(C)cc2C#N)OC(N)=C(C#N)C1c1ccccc1 (stereo not drawn),5%
8,Nc1nc(SCC(=O)NCCC(c2ccccc2)c2ccccc2)n[nH]1,11.2%
9,Cl.N[C@@H](Cc1ccc(O)cc1)c1nnc([C@H](CO)NC(=O)C2CCNCC2)o1,8.64%
10,O=C(OCC(=O)C12CC3CC(CC(C3)C1)C2)c1ccc(CO)cc1,-5.02%
11,Cc1c(NS(=O)(=O)c2ccc3c(c2)OCCO3)cccc1-c1nc2cccnc2s1,11.6%
12,Nc1c(C(=O)NCc2ccco2)c2nc3ccccc3nc2n1CCc1ccc(F)cc1,2.99%
13,CCCC(c1nnnn1CCOC)N(Cc1cc2cc(C)c(C)cc2[nH]c1=O)CC1CCCO1 (stereo not drawn),-0.194%
14,Cc1ccc(C(=O)N2CCN(c3ccccc3O)CC2)cc1S(=O)(=O)N1CCCCC1,-4.54%
15,O=C(NCCCN1CCOCC1)C1CCN(S(=O)(=O)c2cccc(C(F)(F)F)c2)CC1,6.36%
16,O=c1[nH]c(=O)n(-c2cccc(F)c2)c(O)c1/C=C1\C=Nc2ccccc21,11.8%
17,O=C(COc1ccccc1)NCC1COc2ccccc2O1 (stereo not drawn),14.1%
18,CCN(CC)CCNC(=O)c1cc2cc(Br)ccc2s1,-13.5%
19,CCCc1cc(=O)oc2cc(C)cc(OCC(=O)NCc3ccccn3)c12,-5.56%
20,Cc1cc(C)cc(Nc2nc3c(S(=O)(=O)c4ccccc4)nnn3c3ccccc23)c1,11.3%
21,Cc1ccc(N(CC(=O)Nc2c(C)n(C)n(-c3ccccc3)c2=O)S(C)(=O)=O)cc1C,17.1%
22,COC(=O)c1ccccc1NC(=O)c1ccc2c(c1)OCCCO2,11.2%

row,SMILES,"hERG current change (%, negative = inhibition) at 1uM"
1,Cn1c(=O)c2c(ncn2CC(N)=O)n(C)c1=O,17.4%
2,COc1ccccc1CC1(C)NC(=O)N(CC(=O)Nc2cc(C)on2)C1=O (stereo not drawn),7.33%
3,C[C@@H](N)Cc1cnc[nH]1.Cl,12%
4,CC1CN(c2ccc(NC(=S)Nc3ccc(N4CC(C)OC(C)C4)cc3)cc2)CC(C)O1 (stereo not drawn),14%
5,Cc1sc2nc(CN3CCCC3)nc(N3CCN(S(=O)(=O)c4cccc(F)c4)CC3)c2c1C,-8.91%
6,CCc1nn(CC(=O)NCc2ccccc2Cl)c(=O)c2cccn12,9.92%
7,O=C(CCCN1C(=O)/C(=C\c2ccccc2)SC1=S)Nc1ccccc1O,19.6%
8,Cc1cc(=O)oc2ccc(OC(=O)CC(C)C)cc12,22.5%
9,CCOC(=O)Cc1csc(NC(=S)NC(=O)c2ccc(F)cc2)n1,15.4%
10,COc1cc(CNC2CCCCCCC2)ccc1OCC(N)=O,15.9%
11,COC(=O)c1ccc(NC(=O)Nc2ccc(C)cc2)cc1,1.74%
12,O=C(NCCNC(=O)c1ccccc1Br)c1cccnc1,22.1%
13,CCO[C@H]1OC(C(=O)O)=C[C@@H](C2CCCCC2)[C@@H]1CCCO,16.5%
14,CN(CC(=O)N1CC=C(c2ccccc2)CC1)S(=O)(=O)c1ccc2c(c1)c(=O)n(C)c(=O)n2C,-5.99%
15,CC1CCC2C(=O)N(c3ccc(C(=O)NCc4ccccc4)cc3)C(=O)C2C1 (stereo not drawn),13.3%
16,Cn1nc(-c2ccc(OCC(=O)Nc3ccccc3)cc2)c2ccccc2c1=O,1.65%
17,Cc1ccc(C(C(=O)NC2CCCC2)N(C(=O)CNC(=O)c2cccs2)c2cccnc2)o1 (stereo not drawn),7.74%
18,O=C(CNC(=O)OCc1ccccc1)NC1CCCCCC1,13.4%
19,Cc1cnc(C(=O)OCC(=O)c2csc(N3CCCCC3)n2)cn1,10.6%
20,COc1cccc(NC(=O)CN(C)C(=O)c2c(-c3ccccc3)noc2C)c1,7.25%
21,O=S(=O)(C/C(=C/CO)S(=O)(=O)c1ccccc1)c1ccccc1,-6.91%
22,O=C(Nc1nnc(SCCN2CCOCC2)s1)C1CC(=O)N(c2ccccc2)C1 (stereo not drawn),11.4%

row,SMILES,"hERG current change (%, negative = inhibition) at 1uM"
1,Cc1ccc(S(=O)(=O)n2ccc3c(OCCOCCNCc4ccc(F)cc4)cccc32)cc1,10.2%
2,CCOC(=O)c1c(/N=C/C2C(=O)NC(=S)NC2=O)sc(C)c1C,8.52%
3,CCc1cc(-c2n[nH]c(=S)n2Cc2ccccc2)cs1,5.55%
4,CCOc1ccc(/C=N/O)cc1,3.54%
5,C/C(=N\NC(=S)NC1CCCCC1)c1ccc(Cl)c(Cl)c1,7.3%
6,Cc1ccc(Cn2c(C(C)Nc3nc(C)cs3)nc3cc(Cl)c(Cl)cc32)cc1 (stereo not drawn),18.3%
7,COc1ccc(C)cc1NC(=O)C1CC(=O)N(Cc2ccco2)C1 (stereo not drawn),7.29%
8,CC(Oc1ccc(Br)cc1)C(=O)Nc1cc(S(=O)(=O)N2CCOCC2)ccc1N1CCCC1 (stereo not drawn),2.72%
9,Cc1[nH]nc(Nc2ccc(C(C)C)cc2)c1[N+](=O)[O-],10.8%
10,Cc1cc(=O)oc2cc(OCC(=O)N3c4ccccc4CC3C)ccc12 (stereo not drawn),10.7%
11,COc1cccc(OC)c1C(=O)Nc1ccccc1NC(=O)c1c(OC)cccc1OC,9.5%
12,COCCCNC(=O)c1c(NC(=O)c2cccs2)sc2c1CCCC2,4.04%
13,COc1c(/C=C2\SC(=Nc3ccccc3Cl)NC2=O)cccc1[N+](=O)[O-],13.8%
14,CC(C)N(Cc1cc2ccccc2[nH]c1=O)C(=O)c1cccc([N+](=O)[O-])c1,4.34%
15,CN1CCOCCOCCOCCN(C)C1=S,17.1%
16,O=C(c1ccc(F)cc1)N1CCN(c2ccc(N3CCOCC3)nn2)CC1,6.8%
17,COc1cc(C)c(CN2CCC(Oc3ccc(C(=O)N4CCCC4)cc3)CC2)cc1C,-7.65%
18,CCOC(=O)c1c2c3c(cccc3n(C)c1=O)C(=O)c1ccccc1-2,-16.2%
19,CCOCCCNC(=O)C(c1ccc(C)cc1)N(Cc1cccs1)C(=O)c1ccccn1 (stereo not drawn),2.18%
20,CC(C)=C1SC(N2CCN(c3cccc(Cl)c3)CC2)=NC1=O,12.3%
21,CC(C)c1nc(-c2ccccn2)no1,-3.37%
22,Cc1cc(OC(C)C(=O)NNC(=O)Nc2ccc(F)cc2F)cc(C)c1Cl (stereo not drawn),14.6%

row,SMILES,"hERG current change (%, negative = inhibition) at 1uM"
1,Cc1cccc(CN2C(=O)[C@@H]3Cc4c([nH]c5ccccc45)C(C)(C)N3C2=O)c1,6.9%
2,Cc1ccc(-c2ccc(/C=N/NC(=O)CN3CCCC3)o2)cc1Cl,-24.6%
3,CCCCOc1ccc(/C=N/NC(=S)Nc2cccc(C)c2C)cc1,-7.15%
4,c1csc(-c2nc3ccccc3s2)c1,-12.3%
5,CCc1ccc(-c2csc(NC(=O)C3=NN(c4ccccc4)C(=O)CC3)n2)cc1,19.3%
6,Cc1c(N2CCCC2)cc2c(c1NC(=O)c1ccccc1Cl)C(C)(C)CC2(C)C,12.9%
7,CC(C)Cn1c2c(c(O)c(C(=O)Nc3ncccc3O)c1=O)CCCC2,5.51%
8,Cc1ccc(-n2nnnc2-c2nc3ccccc3s2)cc1,19.9%
9,O=c1ccnc(SCCc2ccccc2)[nH]1,17.6%
10,CSC1=C(C#N)C(C)C2=C(CC(C)(C)CC2=O)N1 (stereo not drawn),7.22%
11,CCOC(=O)c1ccc(S(=O)(=O)N2CCN(CC(O)COc3cccc(C(C)=O)c3)CC2)cc1.O=C(O)C(=O)O (stereo not drawn),10%
12,COc1ccc(NC(=O)CSc2nnc(C3CC3)n2-c2ccccc2)cc1,-4.85%
13,CN(C)CCCNC(=O)c1cc(C(=O)c2cccc(Cl)c2Cl)c[nH]1,-8.64%
14,O=[N+]([O-])c1ccc(Oc2ccc(-c3nnco3)cc2)c(Cl)c1,-3.69%
15,CCC(C)(C)NC(=O)C(c1cccn1C)N(Cc1ccc(OC)cc1)C(=O)Cn1nnc2ccccc21 (stereo not drawn),1.79%
16,O=C(Nc1ccccc1)NN1CC(=O)N(c2ccc(Cl)cc2)CC1=O,15.3%
17,COc1ccc(-c2noc(N3CCCC(C(=O)Nc4ccc(F)cc4F)C3)n2)cc1 (stereo not drawn),-12.7%
18,CC(C)[C@H](N)c1nnc(SCc2ccc(Cl)cc2)o1.Cl,13%
19,COc1ccc(NC(=O)C2CCCC2)cn1,15.3%
20,Clc1ccc(Cc2nnc(-c3ccccc3Br)o2)cc1,13.4%
21,COc1ccc(S(=O)(=O)CCC(=O)N(C)c2ccc(OC)cc2OC)cc1,-2.39%
